Our source for the binding signal values is PMC12820563, “FoxP3 forms a head-to-head dimer in vivo and stabilizes its multimerization on adjacent microsatellites”.

The list shows a part of the results.

For this test, the target named is T1, MBP-FoxP1dN (Mus musculus, UniProt P58462 326-579).
T1 sequence: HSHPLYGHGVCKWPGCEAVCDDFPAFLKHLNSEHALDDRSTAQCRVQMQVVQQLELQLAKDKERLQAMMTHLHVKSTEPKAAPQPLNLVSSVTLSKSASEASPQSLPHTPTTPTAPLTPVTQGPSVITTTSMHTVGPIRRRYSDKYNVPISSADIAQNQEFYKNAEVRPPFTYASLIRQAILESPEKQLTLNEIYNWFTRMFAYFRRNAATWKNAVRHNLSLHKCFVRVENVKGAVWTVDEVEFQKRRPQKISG
Kind of test: PD-seq (MBP pull-down with sequencing); 20 mM Tris-HCl pH 7.5, 100 mM NaCl, 1.5 mM MgCl2, 0.4 uM protein, 0.1 uM dsDNA library, 30 min, room temperature, amylose pull-down; high values mean tight binding. The settings on record: protein: recombinant; tags: His6-MBP; chain copies: 2; dsDNA, one strand shown. In outline: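 His6-MBP-tagged mouse FoxP3 or FoxP1 fragment lacking the N-terminus, expressed in E. coli, was mixed at 0.4 µM with 0.1 µM Klenow-filled double-stranded degenerate DNA library. Incubation was 30 min at room temperature in Tris pH 7.5 buffer with NaCl and MgCl2. Complexes were caught on amylose resin and washed three times; DNA was released with proteinase K, PCR-barcoded and Illumina-sequenced. Binding is reads-per-million enrichment, pull-down over input, with replicates pooled.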
In the case of “GATGATTGTTCTCCCAGCTGATGAATTCGATTAATCGAGTAAACAAATTTTCCTAATCTTTCTGTTCAAGCGCCATCTAC”, the binding signal is 0.949 RPM ratio (pull-down/input).

For the sequence “GATGATTGTTCTCCCAGCTGATGAATTATTAAAGTCGAGTAAACAAATTTTCCTAATCTTTCTGTTCAAGCGCCATCTAC”, the binding signal is 1.1 RPM ratio (pull-down/input).

Take “GATGATTGTTCTCCCAGCTGATGAATTGGAGTCCTCGAGTAAACAAATTTTCCTAATCTTTCTGTTCAAGCGCCATCTAC”: the binding signal is 0.777 RPM ratio (pull-down/input).

On to “GATGATTGTTCTCCCAGCTGATGAATTACGTCCATCGAGTAAACAAATTTTCCTAATCTTTCTGTTCAAGCGCCATCTAC”, for which the binding signal is 1.05 RPM ratio (pull-down/input).

Turning to “GATGATTGTTCTCCCAGCTGATGAATTGTGTTTCTCGAGTAAACAAATTTTCCTAATCTTTCTGTTCAAGCGCCATCTAC”, the binding signal is 1.6 RPM ratio (pull-down/input).

Consider “GATGATTGTTCTCCCAGCTGATGAATTCTCCCAATCGAGTAAACAAATTTTCCTAATCTTTCTGTTCAAGCGCCATCTAC”, for which the binding signal was 0.958 RPM ratio (pull-down/input).

Take “GATGATTGTTCTCCCAGCTGATGAATTTATCTCATCGAGTAAACAAATTTTCCTAATCTTTCTGTTCAAGCGCCATCTAC”: the binding signal was 1.3 RPM ratio (pull-down/input).

For the sequence “GATGATTGTTCTCCCAGCTGATGAATTGTGTCCATCGAGTAAACAAATTTTCCTAATCTTTCTGTTCAAGCGCCATCTAC”, the binding signal was 1.16 RPM ratio (pull-down/input).

For “GATGATTGTTCTCCCAGCTGATGAATTACTCTGTTCGAGTAAACAAATTTTCCTAATCTTTCTGTTCAAGCGCCATCTAC”, the binding signal was 1.04 RPM ratio (pull-down/input).

Turning to “GATGATTGTTCTCCCAGCTGATGAATTCTTGAATTCGAGTAAACAAATTTTCCTAATCTTTCTGTTCAAGCGCCATCTAC”, the binding signal is 0.939 RPM ratio (pull-down/input).

Consider “GATGATTGTTCTCCCAGCTGATGAATTTTTCTCCTCGAGTAAACAAATTTTCCTAATCTTTCTGTTCAAGCGCCATCTAC”, for which the binding signal was 0.892 RPM ratio (pull-down/input).

As to “GATGATTGTTCTCCCAGCTGATGAATTGAGCCTATCGAGTAAACAAATTTTCCTAATCTTTCTGTTCAAGCGCCATCTAC”, the binding signal is 0.845 RPM ratio (pull-down/input).

Consider “GATGATTGTTCTCCCAGCTGATGAATTCTTGGAATCGAGTAAACAAATTTTCCTAATCTTTCTGTTCAAGCGCCATCTAC”, for which the binding signal is 0.843 RPM ratio (pull-down/input).

Take “GATGATTGTTCTCCCAGCTGATGAATTCCATACGTCGAGTAAACAAATTTTCCTAATCTTTCTGTTCAAGCGCCATCTAC”: the binding signal is 0.88 RPM ratio (pull-down/input).

On to “GATGATTGTTCTCCCAGCTGATGAATTCTCTGGTTCGAGTAAACAAATTTTCCTAATCTTTCTGTTCAAGCGCCATCTAC”, for which the binding signal was 0.858 RPM ratio (pull-down/input).

“GATGATTGTTCTCCCAGCTGATGAATTCTGCCCTTCGAGTAAACAAATTTTCCTAATCTTTCTGTTCAAGCGCCATCTAC”: the binding signal was 0.806 RPM ratio (pull-down/input).

Take “GATGATTGTTCTCCCAGCTGATGAATTCGCTTAGTCGAGTAAACAAATTTTCCTAATCTTTCTGTTCAAGCGCCATCTAC”: the binding signal was 0.813 RPM ratio (pull-down/input).

Turning to “GATGATTGTTCTCCCAGCTGATGAATTTCCGGCTTCGAGTAAACAAATTTTCCTAATCTTTCTGTTCAAGCGCCATCTAC”, the binding signal was 0.773 RPM ratio (pull-down/input).

Regarding “GATGATTGTTCTCCCAGCTGATGAATTGGAGCGTTCGAGTAAACAAATTTTCCTAATCTTTCTGTTCAAGCGCCATCTAC”, the binding signal is 0.874 RPM ratio (pull-down/input).

On to “GATGATTGTTCTCCCAGCTGATGAATTAACAATCTCGAGTAAACAAATTTTCCTAATCTTTCTGTTCAAGCGCCATCTAC”, for which the binding signal was 1.19 RPM ratio (pull-down/input).

For “GATGATTGTTCTCCCAGCTGATGAATTGAGACAATCGAGTAAACAAATTTTCCTAATCTTTCTGTTCAAGCGCCATCTAC”, the binding signal was 1.17 RPM ratio (pull-down/input).

Consider “GATGATTGTTCTCCCAGCTGATGAATTAGCGGGGTCGAGTAAACAAATTTTCCTAATCTTTCTGTTCAAGCGCCATCTAC”, for which the binding signal was 0.83 RPM ratio (pull-down/input).

For “GATGATTGTTCTCCCAGCTGATGAATTTACAACTTCGAGTAAACAAATTTTCCTAATCTTTCTGTTCAAGCGCCATCTAC”, the binding signal was 1.38 RPM ratio (pull-down/input).

For “GATGATTGTTCTCCCAGCTGATGAATTCGTACGGTCGAGTAAACAAATTTTCCTAATCTTTCTGTTCAAGCGCCATCTAC”, the binding signal is 0.892 RPM ratio (pull-down/input).

For the sequence “GATGATTGTTCTCCCAGCTGATGAATTTCCCACCTCGAGTAAACAAATTTTCCTAATCTTTCTGTTCAAGCGCCATCTAC”, the binding signal is 0.829 RPM ratio (pull-down/input).

As to “GATGATTGTTCTCCCAGCTGATGAATTGCAAGTATCGAGTAAACAAATTTTCCTAATCTTTCTGTTCAAGCGCCATCTAC”, the binding signal is 1.29 RPM ratio (pull-down/input).

For “GATGATTGTTCTCCCAGCTGATGAATTTAACCTTTCGAGTAAACAAATTTTCCTAATCTTTCTGTTCAAGCGCCATCTAC”, the binding signal is 0.911 RPM ratio (pull-down/input).

On to “GATGATTGTTCTCCCAGCTGATGAATTCGGGGCTTCGAGTAAACAAATTTTCCTAATCTTTCTGTTCAAGCGCCATCTAC”, for which the binding signal is 0.802 RPM ratio (pull-down/input).

On to “GATGATTGTTCTCCCAGCTGATGAATTAAGGAGCTCGAGTAAACAAATTTTCCTAATCTTTCTGTTCAAGCGCCATCTAC”, for which the binding signal is 0.828 RPM ratio (pull-down/input).

As for “GATGATTGTTCTCCCAGCTGATGAATTAATCAGCTCGAGTAAACAAATTTTCCTAATCTTTCTGTTCAAGCGCCATCTAC”, the binding signal is 0.867 RPM ratio (pull-down/input).

For the sequence “GATGATTGTTCTCCCAGCTGATGAATTTTGACAGTCGAGTAAACAAATTTTCCTAATCTTTCTGTTCAAGCGCCATCTAC”, the binding signal was 0.923 RPM ratio (pull-down/input).
